Results on 84 variants are retold here after the RNAGym collection of RNA variant scans (doi:10.1093/nar/gkz1192).

Read counts are not given, so values of variants with three or more changes are uncertain.

B1: CPEB3 Ribozyme (parent)
chain: UAACAGGGGGCCACAGCAGAAGCGUUCACGUCGCAGCCCCUGUCAGAUUCUGGUGAAUCUGCGAAUUCUGCUGUAUAUCUC

The variants in the data set derive from B1. Description: self-cleavage, relative activity (ratio to wild type); higher = more cleavage; in vitro, sequencing. Put shortly:
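Relative activity compares each variant's cleaved/total read fraction with that of the unmutated ribozyme. To get these fractions, barcoded CPEB3 ribozyme libraries from rounds of error-prone PCR were transcribed with T7 RNA polymerase for 5 hours at 37°C and then given 15 min of DNase I treatment before EDTA was added. The RNAs were reverse transcribed with template switching and sequenced on Illumina, and DNA sequencing linked barcodes to variants. A minimum of 5 reads applied, and three batches were averaged.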
As for C11U G30A U80C, the self-cleavage was determined as 0.38.

In the case of C11U A20G A35U U54C A64G U67C, the self-cleavage was found to be 0.07.

With C12U A13G A56U, the self-cleavage worked out at 0.25.

C11U U41C A45U G46C A57G U76C U78C: the self-cleavage stood at 0.04.

On to C11U A45C U48C, for which the self-cleavage turned out to be 0.17.

For the variant C12A A13U A35G U74G, the self-cleavage is 1.09.

Regarding C11U A35G U60G, the self-cleavage was 0.8.

For the variant C11U U54C U60A, the self-cleavage was 0.1.

With C11U U54A U58C U69A U72C U78C, the self-cleavage was determined as 0.07.

With C12A C17U G30U A77U U80C, the self-cleavage stood at 0.15.

Take C11U A18G C29U: the self-cleavage turned out to be 0.33.

With C11U G30U C37U U43C U48C U66C A77G, the self-cleavage was found to be 0.03.

In the case of C12A A15G C32A A64U U74A, the self-cleavage amounted to 0.13.

Turning to C11U U54C A56G U58C U60C A64U U66C, the self-cleavage came out at 0.05.

C12A U41C A56U: the self-cleavage was found to be 0.68.

As to C12A U26A G33A U54A A77C, the self-cleavage stood at 0.13.

Regarding C12A A13G G30A U48C, the self-cleavage is 0.08.

On to C11U A20U U26A A47G U72A U80C, for which the self-cleavage was found to be 0.05.

For the variant C12U A15G C39G U41A A56U C62A U69G, the self-cleavage is 0.04.

As for C12G A20G C39A, the self-cleavage was found to be 0.06.

As for C11U U43C A57G U80C, the self-cleavage was found to be 0.2.

C12U A45U U78A: the self-cleavage amounted to 1.08.

For C11U U25A U58C, the self-cleavage came to 0.07.

C12U A15G U49C A56G U60C U72C: the self-cleavage was found to be 0.71.

In the case of C12U A15G U41A A45U A56G, the self-cleavage is 0.03.

In the case of C11U A18U U49C U51A A57G U67A U69G, the self-cleavage was found to be 0.03.

Consider C12U A15U A20G U26A U72A G73A, for which the self-cleavage came out at 1.19.

For C12A C29U C40A U41A U51C, the self-cleavage stood at 0.19.

In the case of C12A A28G U60G, the self-cleavage was determined as 0.14.

For the variant C11G U60C A64U, the self-cleavage turned out to be 0.09.

In the case of C11U A35G A47G U58A A64G, the self-cleavage is 0.49.

With C12G G16A U25A U31C U41C U49C U80C, the self-cleavage was determined as 0.05.

In the case of C11U U25C U72A A75G, the self-cleavage came out at 0.24.

C11U G24C U43C U51C A65G U72C: the self-cleavage turned out to be 0.08.

As for C11U A15G U58C A64U, the self-cleavage was found to be 0.1.

Turning to C11U A20G U26G A35G U72A, the self-cleavage is 0.14.

As for C11U A18G U41A U67A, the self-cleavage came to 0.07.

Regarding C11U A18G U43A A57U, the self-cleavage was 0.11.

For the variant C11U A13G A21U U58C U80C, the self-cleavage is 0.24.

Regarding C12A C14A C32G U41C C62A, the self-cleavage came out at 0.06.

Turning to C12U A20G U26C U72A, the self-cleavage turned out to be 0.35.

Take C12G A18U A47C U54C: the self-cleavage is 0.13.

As to C11U A20G C39A U41C U51A, the self-cleavage turned out to be 0.11.

With C11U A20U U41C A57G A77U, the self-cleavage is 0.06.

For the variant C11U U41C A64U U72G U78A, the self-cleavage was determined as 0.05.

For the variant C11U U78C U80C, the self-cleavage turned out to be 0.18.

For the variant C12A A13G A15U U26A U69C U72A U78C, the self-cleavage worked out at 0.13.

C12U A45U U60A: the self-cleavage amounted to 1.24.

On to C12A U60C C62G, for which the self-cleavage was found to be 0.2.

Turning to C12U A15U G24A C29U A35G U72C G73A, the self-cleavage was 0.05.

With C11U U26C U43C A45G, the self-cleavage was 0.29.

Consider C11U G22A U31C A45G U51C C71A U78A, for which the self-cleavage worked out at 0.02.

With C12A A13G A64U A75G U78C, the self-cleavage amounted to 0.49.

Turning to C11U A20U U60C U69A, the self-cleavage was 0.05.

Regarding C12G C40A U41C A45U G70A U74C U76A, the self-cleavage was 0.08.

For C12U A28G A57G U58C U69C U78C U80A, the self-cleavage was 0.09.

On to C12A A13G U26A U51G U67C U72A A75U, for which the self-cleavage came to 0.22.

C12G A20G U31A U54A U66C: the self-cleavage worked out at 0.1.

Consider C12A A21G A64U, for which the self-cleavage is 0.15.

Turning to C12G U43A U51A C81A, the self-cleavage worked out at 1.21.

With C12U A13G A35G U43C U67C U76C, the self-cleavage was 0.08.

Regarding C11U A28C A47U U48C A57G U58A, the self-cleavage amounted to 0.1.

As for C11U G16A U31G U80A, the self-cleavage worked out at 0.05.

Regarding C12U A15G U48C U80C, the self-cleavage is 0.33.

For C11U A28G C38U A45U U51G U66C U72A, the self-cleavage turned out to be 0.02.

Turning to C12G U26C U31C A57G, the self-cleavage is 0.21.

Regarding C12A A21G U26C G46A, the self-cleavage is 0.28.

With C11U A20G A28G U41C A64G, the self-cleavage worked out at 0.24.

Take C11U G33A C59A: the self-cleavage amounted to 0.15.

For the variant C11U A57G U60C A75U, the self-cleavage came out at 0.06.

Regarding C12A A15G A18G U51A A56U, the self-cleavage was 0.12.

For C11U C23U U26A A45G, the self-cleavage worked out at 0.06.

With C12A U43C U69A, the self-cleavage amounted to 0.35.

In the case of C12G A20G U58C, the self-cleavage is 0.25.

On to C11U A21G U25C A35U, for which the self-cleavage was determined as 0.21.

As to C12A A15U U60A U66C U76C, the self-cleavage came out at 0.16.

With C11U U43G C62A, the self-cleavage stood at 0.07.

Turning to C12A C40A U54A U58C, the self-cleavage stood at 0.09.

With C11U A18C A45G U67G, the self-cleavage is 0.16.

Regarding C11U C40U A64G A65G, the self-cleavage worked out at 0.06.

With C12U A15U U54C U78C, the self-cleavage stood at 1.09.

For the variant C12A C27G A47C A56G, the self-cleavage was found to be 0.18.

Take C12U A15C A56G: the self-cleavage is 1.21.

With C11U U26A U31C G52U, the self-cleavage came to 0.17.
